Laboratory results published in patent US20260144854.

Target: alpha-1-anti-trypsin (A1AT), P01009
Sequence (P01009 whole entry, looked up): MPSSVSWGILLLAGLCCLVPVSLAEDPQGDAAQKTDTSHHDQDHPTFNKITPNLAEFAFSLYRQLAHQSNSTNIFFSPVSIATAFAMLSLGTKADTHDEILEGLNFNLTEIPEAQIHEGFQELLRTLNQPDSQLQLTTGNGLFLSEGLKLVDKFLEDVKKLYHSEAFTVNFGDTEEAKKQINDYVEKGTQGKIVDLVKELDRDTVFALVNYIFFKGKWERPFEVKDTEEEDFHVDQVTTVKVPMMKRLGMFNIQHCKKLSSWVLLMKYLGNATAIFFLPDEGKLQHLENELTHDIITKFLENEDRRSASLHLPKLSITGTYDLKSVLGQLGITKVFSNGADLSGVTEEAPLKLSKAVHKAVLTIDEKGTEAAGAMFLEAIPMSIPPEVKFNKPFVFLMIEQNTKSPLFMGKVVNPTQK

B1: porcine pancreatic elastase (PPE) (protein)
chain: VVGGTEAQRNSWPSQISLQYRSGSSWAHTCGGTLIRQNWVMTAAHCVDRELTFRVVVGEHNLNQNDGTEQYVGVQKIVVHPYWNTDDVAAGYDIALLRLAQSVTLNSYVQLGVLPRAGTILANNSPCYITGWGLTRTNGQLAQTLQQAYLPTVDYAICSSSSYWGSTVKNSMVCAGGDGVRSGCQGDSGGPLHCLVNGQYAVHGVTSFVSRLGCNVTRKPTVFTRVSAYISWINNVIASN
For B1, the “elastase activity after incubation with A1AT (chromogenic substrate assay)” value was “Porcine pancrease protease (PPE) showed less susceptibility to alpha 1 anti-trypsin (A1AT) or serum blocking”.
